These results are taken from PubChem BioAssay (NCATS).

Test [1] in a line: qHTS Assay for Lipid Storage Modulators (AID 1519). The settings on record: Drosophila S3 cells, BODIPY lipid droplet/cell ratio, laser cytometry, cells loaded with oleic acid. The method in brief:
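Cells seeded at 5,000 per well were treated with compounds over a concentration series and loaded with oleic acid (400 uM, as added). Lipid droplet fluorescence (488 nm excitation, 500-530 nm channel) was read by laser-scanning cytometry and normalized to 20 uM Triacsin C.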
In general terms: Quantitative high-throughput screening tests each substance at several concentrations.

Test [2] in a line: qHTS Assay for Modulators of Human Peripheral Myelin Protein 22 (PMP22) Expression/Activity (AID 1967). The settings on record: Cell-based PMP22 reporter, dual-color luciferase ratio. The method in brief: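 Mouse MSC80 Schwann cells carrying Pmp22 promoter–green click beetle luciferase plus EF-alpha–red luciferase control, dosed 24 h at 37 °C. Dual-filter luminescence, overlap-corrected; %Activity from green/red ratio normalised to untreated cells, concentration-response curves fitted.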

Test [3] is described as follows: qHTS Validation Assay to Find Inhibitors of Chronic Active B-Cell Receptor Signaling (AID 485345). The settings on record: ABC-DLBCL cells, chronic BCR signaling reporter; measured here: CBR control luciferase (viability counter). The method in brief: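 Read-out: ratio of filter-corrected green (IkappaBalpha fusion) to red (native) luciferase signal in doxycycline-induced TMD8 cells after 4 h at 37C. Titration spanned 46 uM–3 nM; Data were normalised to basal cells and 10 uM MG-132 wells.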

Test [4] in a line: Nrf2 qHTS screen for inhibitors: Validation (AID 493153). The settings on record: A549 ARE-Fluc reporter, 18-24 h; AC50: CellTiter-Fluor fluorescence read, measured here: cytotoxicity CellTiter-Fluor AC50; viability change: measured here: cytotoxicity max response. The method in brief:
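A549 cells carrying an ARE-driven firefly luciferase reporter, in 5% FBS OPTI-MEM, were treated with compounds in concentration-response for 18-24 h at 37°C. Viability was read by CellTiter-Fluor fluorescence, then Nrf2 activity by luciferase luminescence.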

The nature of test [5]: qHTS assay for small molecule antagonists of peroxisome proliferator-activated receptor gamma signaling (AID 588537). The settings on record: HEK293 PPARg-UAS-bla, beta-lactamase ratio, antagonist mode; measured here: W460 blue channel. The method in brief:
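Inhibitors of agonist-stimulated UAS-bla reporter activity were sought in HEK293 cells; rosiglitazone (50 nM) defined full signal and DMSO baseline. Curves fitted to Hill model gave IC50 and efficacy.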

Test [6] is described as follows: qHTS assay for small molecule antagonists of vitamin D receptor signaling (AID 588541). The settings on record: HEK293T VDR-UAS-bla, beta-lactamase ratio, antagonist mode; measured here: W460 blue channel (cell viability).
Test [7] is described as follows: qHTS assay for small molecule antagonists of retinoid X receptor alpha signaling (AID 588546).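 Also: cells stimulated with 9-cis-retinoic acid as agonist; % is scaled to controls: 0 for no effect and ±100 for the full control effect.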 The settings on record: HEK293T RXRa-UAS-bla, beta-lactamase ratio, antagonist mode; measured here: W530 green channel, cytotoxicity proxy. Put shortly: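 Beta-lactamase reporter inhibition, read as CCF4 fluorescence ratio (ex 405, em 460/530 nm) after 2 h at RT. HEK293T UAS-bla cells, 2500/well, were stimulated with 9-cis-RA at 500 or 100 nM final alongside test compound for 18 h at 37 C.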

Test [8] in a line: A High-Content qHTS Against Drug Library for the Identification of Small Molecules that Inhibit DYT1 Early Onset Primary Dystonia-Associated Cell Pathology (AID 1645839). The settings on record: HEK293 Flp-In EGFP-delE TorsinA, punctate imaging, 48 h; measured here: cell count cytotoxicity. Put shortly:
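In this high-content image screen, delE TorsinA mislocalization in inducible Flp-In 293 cells is scored as %pathology, with cell count serving as the counterscreen. Compound exposure lasts 48 h under tetracycline induction in reduced-serum medium.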

Test [9] is described as follows: qHTS assay for small molecule antagonists of androgen receptor signaling (AID 588516). The settings on record: AR-UAS-bla HEK293, beta-lactamase ratio, antagonist mode, 16 h. Put shortly: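 Cells were plated and incubated 5 h, compounds added in titration, then R1881 (10 nM final) as agonist. After 16 h at 37 C, CCF4 substrate was loaded for 2 h at room temperature and fluorescence measured.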

The nature of test [10]: qHTS assay for small molecule antagonists of glucocorticoid receptor signaling (AID 588533).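 Also: cells stimulated with 2 nM dexamethasone as agonist.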 The settings on record: HeLa MMTV-bla, GRE beta-lactamase ratio, antagonist mode, 18 h; measured here: W530 channel AC50.
Test [11] can be described thus: qHTS assay for small molecule antagonists of peroxisome proliferator-activated receptor delta signaling (AID 588535).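 Also: cells co-treated with a PPAR-delta agonist as stimulator during compound exposure.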 The settings on record: HEK293T PPARd-UAS-bla, beta-lactamase FRET ratio, 18 h; 460 nm channel. Put shortly: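 Cell-based beta-lactamase assay in antagonist mode: 4000 HEK293T PPAR-delta-UAS-bla cells per well, 5 hr preincubation then 18 hr compound incubation at 37 C. IC50 obtained by Hill equation fitting.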

Test [12] in a line: qHTS assay for small molecule agonists of retinoid X receptor alpha signaling (AID 588544). The settings on record: HEK293T RXRa-UAS-bla, beta-lactamase reporter, 18 h; 530 nm emission.
Test [13] is described as follows: S16 Schwann cell PMP22 intronic element beta-lactamase assay (AID 624044). Also: nearly all actives have a fitted effect of over 15% in size. The settings on record: S16 rat Schwann cells, PMP22 element beta-lactamase FRET, 24 h; measured here: 460 nm blue channel. The method in brief:
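Rat S16 Schwann cells with beta-Lac driven by a PMP22 intronic element, compound-treated 24 h at 37 °C. LiveBLAzer FRET B/G read: 460 nm normalized to potassium clavulanate vs DMSO; 535 nm FRET as viability; concentration-effect curves classified.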

The nature of test [14]: qHTS Assay for Inhibitors of PDE-IV (AID 607).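 Also: parental cells stimulated with forskolin 10 µM plus RO 20-1724 100 µM.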 The settings on record: HEK293 ACTOne CNG channel cells, membrane potential fluorescence; measured here: parental cell counter-screen. The method in brief: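 Cell-based read-out of cAMP via a modified cyclic nucleotide-gated channel and membrane potential dye (535/590 nm) in HEK293 cells expressing PDE4 endogenously. Compounds tested up to 22.9 uM final; 100 uM RO 20-1724 reference.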

Where [15] appears, read: measured here: cell count channel max response.
The mark [16] stands for this setting: measured here: cell number channel AC50.
Setting [17] is: measured here: lipid (BODIPY) channel AC50.
Where [18] appears, read: measured here: lipid channel max response.
The mark [19] stands for this setting: measured here: green reporter channel AC50, mouse Pmp22 promoter in mouse Schwann cells.
[20] abbreviates: measured here: red reporter channel AC50, EF-alpha promoter control reporter in MSC80 mouse Schwann cells.

SMILES strings stand for the structures. Several values for one entry are separate records, joined by “and”; a condition that tells them apart may be missing. Identical values can stand only once. Some of the results follow. Shown are side measurements of this screen, not its main read-out; they come without a call. Most of these compounds were active or inconclusive in the main read-out, so they are no random draw. For some of these results: Words in brackets tell the shape of the fitted curve; partial curves, single points and poor fits give uncertain potencies.
Tags tell the direction and shape of the fitted curve.

As for `Ic1ccccc1CNC1C2CCN(CC2)C1C(c1ccccc1)c1ccccc1` (centres undefined), the max response amounted to 44.9% in test [1] (setting [15]) and 44.8% in test [1] (setting [18]). Besides, the AC50 was 0.141 µM [rising, full curve, poor fit] in [1] (setting [16]); 0.141 µM [rising, full curve, poor fit] in test [1] (setting [17]); 33.8 µM [falling, full curve] in test [2] (setting [19]); 23.9 µM [falling, full curve] in [2] (setting [20]); 13 µM [falling, partial curve] in test [3]; 29.1 µM [falling, partial curve, poor fit] in test [4]. In addition, the viability change in [4] was -29.3%.
As for `O=c1[nH]c(=O)n([C@H]2C[C@H](O)[C@@H](CO)O2)cc1/C=C/Br`, the figures for the max response in [1] (setting [15]) and in test [1] (setting [18]) were -30.1% and -29.5%, respectively. In addition, the AC50 in [1] (setting [16]) was 3.55 µM [falling, full curve, poor fit]; in test [1] (setting [17]) it was 3.55 µM [falling, full curve, poor fit]; in test [2] (setting [20]), 84.9 µM [falling, partial curve].
Consider `CN1C[C@H](CNC(=O)OCc2ccccc2)C[C@@H]2c3cccc4c3c(cn4C)C[C@H]21`, for which the max response in test [1] (setting [15]) is 93.4%; in test [1] (setting [18]), 122%. Also, the half-maximal activity concentration (AC50) in [1] (setting [16]) is 7.08 µM [rising, partial curve]; in test [1] (setting [17]) it was 7.94 µM [rising, partial curve]; in test [2] (setting [20]), 30.1 µM [rising, single point]. For the same compound, the viability change in [4] is -2.78%.
For the compound `CCCCN1C2CCC1CC(OC(c1ccc(F)cc1)c1ccc(F)cc1)C2` (centres undefined), the max response in [1] (setting [15]) was determined as 8.1%; in test [1] (setting [18]), 6.83%. For the same compound, the AC50 in test [1] (setting [16]) was 1.58 µM [falling, full curve, poor fit]; in test [1] (setting [17]) it was 1.58 µM [falling, full curve, poor fit]; in test [2] (setting [19]), 33.8 µM [falling, full curve]; in test [2] (setting [20]), 33.8 µM [falling, full curve].
Take `C[N+](C)(C)CC#CCN1CCCC1=O`: the max response in [1] (setting [15]) was found to be 56.1%; in test [1] (setting [18]) it was 57.3%. For the same compound, the AC50 in [1] (setting [16]) was 39.8 µM [rising, single point]; in test [1] (setting [17]), 39.8 µM [rising, single point]; in test [2] (setting [20]), 3.01 µM [rising, full curve, poor fit].
`CC(=O)N1CCN(c2ccc(OC[C@H]3CO[C@](Cn4ccnc4)(c4ccc(Cl)cc4Cl)O3)cc2)CC1`: the max response in [1] (setting [15]) is 16.7% and -16%; in [1] (setting [18]), 24.5% and -17.4%; in [7], -23.5%. The AC50 is 70.8 nM [rising, full curve, poor fit] and 1.41 µM [falling, full curve, poor fit] in test [1] (setting [16]); 63.1 nM [rising, full curve, poor fit] and 1.58 µM [falling, full curve, poor fit] in test [1] (setting [17]); 42.6 µM [falling, full curve] in test [2] (setting [19]); 42.6 µM [falling, partial curve] in [2] (setting [20]); 44.7 µM [falling, partial curve] in test [5]; 44.7 µM [falling, partial curve, poor fit] in test [6]. Further, the viability change in test [4] worked out at 5.73%.
Regarding `Cc1cc(C(C)(C)C)cc(C)c1CC1=NCCN1`, the max response in test [1] (setting [15]) is 26.1%; in test [1] (setting [18]), 25.6%. The AC50 in test [1] (setting [16]) is 25.1 µM [falling, partial curve, poor fit]; in test [1] (setting [17]), 17.8 µM [falling, partial curve, poor fit]; in test [2] (setting [19]), 75.7 µM [falling, single point]; in [2] (setting [20]) it was 84.9 µM [falling, single point].
As for `O=S1(=O)N(CCN2CC=C(c3c[nH]c4cc(F)ccc34)CC2)c2cccc3c2N1CCC3`, the values for the max response in [1] (setting [15]) and in test [1] (setting [18]) were -78.6% and -79.6%, respectively. Besides, the AC50 is 25.1 µM [falling, partial curve, poor fit] in [1] (setting [16]); 25.1 µM [falling, partial curve, poor fit] in [1] (setting [17]); 60.1 µM [falling, partial curve] in test [2] (setting [19]); 84.9 µM [falling, partial curve, poor fit] in test [2] (setting [20]).
On to `Oc1ccc(Cl)cc1`, for which the max response in test [1] (setting [15]) worked out at 23%; in test [1] (setting [18]), 31.8%. For the same compound, the AC50 in test [1] (setting [17]) was 39.8 µM [rising, single point]; in [8], 35.5 µM [falling, single point].
On to `CC(=O)[O][Hg][c]1ccccc1`, for which the max response in test [1] (setting [15]) is -71.3%; in [1] (setting [18]) it was -108%; in [11], -71.2%; in [12] it was -52.2% and -56%; in test [7] it was -30.3% and -29.8%. Further, the half-maximal activity concentration (AC50) in test [1] (setting [16]) is 8.91 µM [falling, partial curve]; in test [9] (measured here: W460 blue channel fit), 3.16 µM [falling, full curve] and 2 µM [falling, full curve]; in [9] (measured here: W530 green channel, cytotoxicity/artifact), 2 µM [rising, full curve]; in test [10], 17.8 µM [falling, partial curve, poor fit]; in test [5], 12.6 µM [falling, full curve]; in test [6] it was 2.24 µM [falling, full curve] and 3.16 µM [falling, full curve]. Further, the AC50 is 1.78 µM [falling, full curve] in [13] and 0.562 µM [falling, full curve, poor fit] in test [8].
In the case of `CC(CCc1ccccc1)NC(C)C(O)c1ccc(O)cc1` (centres undefined), the max response in test [1] (setting [15]) amounted to 20.5%; in test [1] (setting [18]), 32.7%. The AC50 in test [1] (setting [17]) was 39.8 µM [rising, single point]; in [8] it was 7.08 µM [falling, partial curve, poor fit].
For `COc1ccc(CNC(=O)/C=C\c2ccc3[nH]cc(CCN(C)C)c3c2)cc1`, the half-maximal activity concentration (AC50) in test [14] was 10 µM [rising, full curve, poor fit]; in test [1] (setting [16]), 31.6 µM [rising, partial curve, poor fit]; in [1] (setting [17]) it was 35.5 µM [rising, partial curve, poor fit]. Further, the max response in test [1] (setting [15]) amounted to 59.9%; in [1] (setting [18]), 82%.

As usually defined, the AC50 is the concentration giving half of the maximal activity seen.
